Test results published in the supplement of paper PMC12217912.
Some of the results follow. Sequences were assembled here from the parent chain. Values near 0.05 are background.

B1: TEV protease; numbered along this chain (parent)
chain: MGESLFKGPRDYNPISSSICHLTNESDGHTTSLYGIGFGPFIITNKHLFRRNNGTLVVQSLHGVFKVKDTTTLQQHLVDGRDMIIIRMPKDFPPFPQKLKFREPQREERICLVTTNFQTKSMSSMVSDTSCTFPSGDGIFWKHWIQTKDGQCGSPLVSTRDGFIVGIHSASNFTNTNNYFTSVPKNFMELLTNQEAQQWVSGWRLNADSVLWGGHKVFMVKPEEPFQPVKEATQL

Variants of: B1
Experiment: raw area under fraction-flipped curve 0-4 h after induction (AUC4h, not background-subtracted), DNA-recorder readout of cleavage of the substrate (dimensionless); higher = more cleavage of the substrate by the protease variant
Conditions: temperature: 34 °C; time window: 0-4 h after rhamnose induction
Protocol: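 In vivo DNA recorder in E. coli TOP10(DE3) ΔrhaA at 34 °C. Each TEVp single-site mutant (parent TEVp 0) is paired with a single-site variant of the 7-mer TEVs (canonical ENLYFQ|S). The substrate sits between flexible linkers in a Bxb1-sfGFP-TEVs-SsrA fusion, so cleavage stabilises Bxb1 and speeds flipping of a recombination array, read by NGS. The value is the raw area under the fraction-flipped curve over 0-4 h after rhamnose induction (AUC4h), with ≥20 reads per time point. It is not background-subtracted; inactive controls average about 0.047.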
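Note: Bxb1 expression induced with 0.2% (w/v) L-rhamnose at OD600 near 0.5, cultures sampled hourly, flipped fraction per protease–substrate barcode pair counted by paired-end Illumina sequencing.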

Variant | area with substrate ENLYFAS | area with substrate ENLYFCS | area with substrate ENLYFES | area with substrate ENLYFIS | area with substrate ENLYFKS | area with substrate ENLYFLS | area with substrate ENLYFMS | area with substrate ENLYFPS | area with substrate ENLYFRS | area with substrate ENLYFTS | area with substrate ENLYFVS | area with substrate ENLYFYS | area with substrate ENLYFGS | area with substrate ENLYFHS | area with substrate ENLYFNS | area with substrate ENLYFWS | area with substrate ENLYFFS | area with substrate ENLYFSS | area with substrate ENLYFDS
A207F | 0.0536 | 0.0592 | 0.0609 | 0.057 | 0.0525 | 0.057 | 0.0631 | 0.0457 | 0.0493 | 0.0559 | 0.0586 | 0.0563 | – | – | – | – | – | – | –
G162Q | 0.0599 | 0.0546 | 0.07 | 0.0531 | – | – | – | 0.0656 | 0.0525 | 0.0579 | 0.0382 | – | 0.0755 | 0.0457 | 0.0599 | 0.058 | – | – | –
G162Y | 0.0592 | 0.049 | 0.0522 | 0.0465 | 0.0636 | 0.0507 | 0.0538 | 0.0515 | 0.0604 | – | 0.0729 | 0.0462 | 0.0584 | – | – | – | 0.0744 | 0.0593 | –
N177F | 0.0541 | – | – | 0.0545 | – | 0.0533 | 0.0559 | – | 0.0605 | 0.0459 | 0.006 | 0.0631 | 0.0647 | 0.0581 | – | 0.0677 | 0.0661 | – | 0.0626
N177R | 0.0631 | – | 0.0554 | 0.0841 | – | – | 0.0693 | 0.0734 | – | – | – | – | – | – | 0.0627 | 0.0606 | – | – | –
N178L | 0.0421 | 0.0451 | – | 0.056 | 0.0636 | – | 0.0585 | 0.0485 | 0.0562 | 0.0265 | – | 0.0673 | – | 0.1 | 0.068 | – | 0.0782 | – | –
S182D | 0.0651 | 0.0638 | 0.0566 | – | – | – | 0.0623 | 0.0592 | – | 0.0364 | – | – | 0.0499 | – | 0.0589 | 0.0582 | 0.062 | – | –
L190I | 0.0519 | – | – | 0.0521 | 0.055 | – | 0.0593 | 0.0429 | – | – | – | – | – | – | – | – | 0.0739 | – | –
G166H | 0.0514 | 0.0592 | – | 0.0439 | 0.0436 | 0.0669 | 0.0523 | 0.0451 | 0.0573 | 0.0795 | 0.0432 | – | – | – | 0.0634 | – | – | 0.0485 | –
D161N | 0.0586 | – | 0.0571 | 0.0633 | 0.0536 | 0.044 | 0.0553 | 0.0574 | 0.0292 | – | – | 0.0562 | 0.0603 | 0.0424 | – | 0.0555 | 0.0699 | – | –
D161L | 0.0557 | 0.0585 | 0.0584 | 0.0502 | 0.0599 | – | 0.0556 | 0.059 | 0.0473 | – | 0.0511 | 0.0443 | – | – | 0.0582 | 0.0277 | 0.0496 | – | –
S209Q | 0.0746 | – | – | 0.0535 | – | 0.0589 | 0.0751 | 0.0568 | 0.0751 | 0.0611 | 0.0629 | – | 0.0575 | – | 0.0581 | 0.0526 | 0.0663 | 0.0685 | –
S209M | 0.0755 | – | 0.0624 | – | 0.0293 | – | 0.0922 | – | 0.0567 | 0.0636 | 0.0498 | 0.0615 | 0.0627 | – | 0.0428 | 0.0599 | 0.0697 | – | –
A170D | 0.0559 | – | 0.0537 | – | – | – | 0.0492 | – | 0.0511 | – | – | – | – | – | 0.0628 | – | – | – | –
A170P | 0.0643 | – | – | 0.0396 | – | – | – | 0.0864 | 0.0681 | – | – | – | – | – | – | – | 0.0579 | 0.0624 | 0.052
